In all, about 52,000 compounds went through this assay and about 1,700 (3.3%) were called active. Cut-off read from the data, not from the text of the source: active = survival mostly below about 52% (no sharp cut-off); inactive = mostly above about 56%. This is one part of the list.
Tested on: Wild type
Assay: growth inhibition of S. aureus wild type versus tarO mutant, primary screen, teichoic acid synthesis inhibitors, RN4220, OD600 (AID 463173)
Details: S. aureus RN4220 wild type/DeltatarO growth, OD600, 18 h, active compounds read low, screened at 18.75 µg/mL (by protocol)

Structure (SMILES) | survival
Cc1ccc(NC(=O)c2cc3c(-c4ccccc4)nn(-c4ccccc4)c3s2)cc1 | inactive: 66%
CCn1c(SCc2ccc(C)cc2)nnc1-c1ccc(S(=O)(=O)N2CCOCC2)cc1 | inactive: 104%
COc1ccc(CNC(=O)c2cc3c(-c4ccccc4F)nn(C)c3s2)cc1 | inactive: 64%
O=C(C1CCCCC1)N1CCC(n2nnc3ccccc32)CC1 | inactive: 98%
COc1ccc(NC(=O)Cn2c(=O)n(CC(=O)NCCc3ccccc3)c(=O)c3ccccc32)cc1 | inactive: 105%
Cc1c(C(=O)NCc2ccccc2)sc2nc[nH]c(=O)c12 | inactive: 78%
Cc1ccc(CCNc2nc3c(S(=O)(=O)c4ccccc4)nnn3c3ccsc23)cc1 | inactive: 73%
COc1cc(-c2noc(-c3ccc(N(C)C)c([N+](=O)[O-])c3)n2)cc(OC)c1OC | inactive: 84%
O=C(Nc1cc(-c2nc3ccccc3o2)ccc1Cl)c1ccc(Br)o1 | inactive: 65%
COc1cccc(Cc2nc3ccccc3nc2SCC(=O)N2CCN(c3ccccc3)CC2)c1 | inactive: 101%
O=C(Cn1c(-c2cccs2)cc2cc(F)ccc21)N1CCN(c2cccc(Cl)c2)CC1 | inactive: 65%
CCC(=O)N(Cc1nc2ccccc2c(=O)[nH]1)Cc1ccccc1OC | inactive: 94%
Cc1ccccc1Cn1c2ccccc2c2cnn(CC(=O)NCCCc3ccccc3)c(=O)c21 | inactive: 87%
N#Cc1ccc(CSCC(=O)NN=C2CCCC2)cc1 | inactive: 103%
COc1cccc2c1cc1c(=O)n(CC(=O)O)nc(C)n12 | inactive: 87%
CC(=O)Nc1ccc(S(=O)(=O)NC2(C(F)(F)F)NC(=O)N(c3ccccc3F)C2=O)cc1 (configuration not stated) | inactive: 76%
CCC1CN(C(=O)Nc2cccc(OC)c2)c2ccccc2O1 (configuration not stated) | inactive: 99%
COc1ccc2c(c1)c1c(c(=O)n(-c3ccc(F)c(Cl)c3)c(=O)n1CC(N)=O)n2C | inactive: 72%
CCOc1ccc(-c2c(C)nn3c(C)c(C(=O)NCCc4ccccc4)cnc23)cc1OCC | inactive: 53%

Structure (SMILES) | survival
Cn1nc(C(=O)N2CCN(c3ccc(Cl)cc3)CC2)c2c1-c1ccccc1S(=O)(=O)C2 | inactive: 66%
COc1ccccc1CNC(=O)CSc1cc(=O)n(C)c2ccccc12 | inactive: 83%
COc1ccc(-c2cc(C(F)(F)F)nc(NCc3ccc(Cl)cc3)n2)cc1 | active: -3%
CCOc1ccc(Nc2sc(C(=O)c3ccc4c(c3)OCO4)c(N)c2S(=O)(=O)c2ccc(C)cc2)cc1 | inactive: 73%
O=C1CC(c2nnc(Cc3cccc(Cl)c3)o2)CN1c1ccccc1 (configuration not stated) | inactive: 113%
CCOc1ccc(C2C(C(=O)Nc3ccccc3OC)=C(C)Nc3c(C(=O)Nc4cccc(C)c4)cnn32)cc1 (configuration not stated) | inactive: 78%
CN(C)CCNc1ncnc2ccccc12 | inactive: 107%
Cc1ccc2c(c1)cc1c(=O)n(Cc3ccc(Cl)cc3)nc(C)n12 | inactive: 97%
COc1cccc(-c2cc(C(=O)Nc3ccc(Br)c(C)c3)[nH]n2)c1 | inactive: 85%
COc1ccc(-n2c(=O)c3ccc(C(=O)NCc4ccc(C)cc4)cc3n(Cc3cccc(Cl)c3)c2=O)cc1 | inactive: 74%
COc1ccc(CN(Cc2ccco2)C(=O)c2ccccc2F)cc1 | inactive: 82%
Cc1cccc(C)c1NS(=O)(=O)c1ccc2c(c1)[C@H]1C=CC[C@H]1[C@@H](c1ccc(Cl)cc1)N2 | inactive: 69%
CCn1c(CC2C(=O)Nc3ccccc32)nc2ccccc2c1=O (configuration not stated) | inactive: 81%
CC1CCN(c2oc(-c3cccs3)nc2S(=O)(=O)c2ccccc2)CC1 | inactive: 24%
CCCC(=O)Nc1c(C)nn(C(=O)CCC)c1C | inactive: 108%
O=C1C(c2ccccc2)NC(=S)N1C1CCCCC1 (configuration not stated) | inactive: 115%
CCOc1ccc(CNC(=O)C2CCN(c3nc4ccccc4nc3C(F)(F)F)CC2)cc1OC | inactive: 73%
CCc1c(C)sc2c1CCN(Cc1ccccc1C#N)C2c1ccccc1 (configuration not stated) | inactive: 124%
COc1ccc(CCNC(=O)c2cnc3sc(N4CCOCC4)nn3c2=O)cc1 | inactive: 80%

Structure (SMILES) | survival
O=c1[nH]c2cc3[nH]c(=O)c(=O)c3cc2c1=O | inactive: 106%
CCOC(=O)c1cnc2c(ccc3ccccc32)c1Nc1cccc(Cl)c1 | inactive: 23%
Cc1nn(C)c2c1c(-c1ccccc1)cc(=O)n2Cc1ccc(F)cc1 | inactive: 124%
COc1ccc(-n2nc3ccc(NC(=O)c4cccc(OCCC(C)C)c4)cc3n2)cc1 | inactive: 135%
COc1ccc(-n2cc(-c3ccc4c(c3)OCO4)n(CC(=O)Nc3cc(Cl)ccc3C)c2=O)cc1 | inactive: 89%
CCOC(=O)c1cnc2ccc(OC)cc2c1Nc1ccc(OCc2ccccc2Cl)cc1 | active: 6%
Cc1ccc(NC(=O)CCC(=O)N2Cc3ccccc3Oc3ncccc32)cc1Cl | inactive: 82%
COc1ccccc1CNC(=O)C(NS(=O)(=O)c1ccc2c(c1)CCN2C(C)=O)C(C)C (configuration not stated) | inactive: 75%
COc1ccc(CNC(=O)c2cnc(N3CCCC3)nc2C)c(OC)c1 | inactive: 70%
COc1ccc(C)cc1NC(=O)c1nnn(Cc2cccc(Br)c2)c1N | inactive: 102%
COc1ccc(C2=NS(=O)(=O)N(C)C(C(=O)NC(C)c3ccccc3)=C2)cc1 (configuration not stated) | inactive: 78%
N#Cc1cn(CC(=O)Nc2ccccc2C(F)(F)F)c2ccccc12 | inactive: 100%
COc1ccc(-c2nc3sc(CCNC(=O)Cc4ccccc4)c(C)n3n2)cc1 | inactive: 135%
CCN(C(=O)CSc1nc2ccccc2n1CC(=O)N(C)C1CCCCC1)c1ccccc1 | inactive: 133%
O=C1CC(C(=O)NCCc2ccccc2)C2(CCCCC2)O1 (configuration not stated) | inactive: 103%
CCOC(=O)c1cc(-c2ccccc2)n(CCC(=O)NCCc2ccccc2)c1C | active: -2%
CC1=C(C(=O)OC2CCCC2)C(c2ccc(C)o2)C2=C(CCCC2=O)N1 (configuration not stated) | inactive: 104%
CCN(CC)S(=O)(=O)c1ccc2c(c1)N(CC(=O)NCCCN1CCN(c3ccc(OC)cc3)CC1)C(=O)CO2 | inactive: 78%
Cc1ccc2oc(C(=O)Nc3ccc(S(=O)(=O)N4CCCCC4C)cc3)cc(=O)c2c1 (configuration not stated) | inactive: 86%

— PubChem BioAssay AID463173 (ICCB-Longwood Screening Facility, Harvard Medical School, 2010)
